Laboratory results reported in publication PMC6548130.
These are yes or no findings as the source states them, for the method shown. In cells and extracts the contact can be indirect. Some results given as binding are weak or reduced against the parent protein; the word gives no strength.

Assays:
Test in all cases: split reporter; BiFC with the two halves of Venus: pVC-SNF7 and pVN-ATGX cotransformed in yeast cells, expression induced in SD-Ura-His-Met for 1.5 h, starved in SD-N for 30 min, YFP dots seen by live-cell fluorescence microscopy; Atg17-Snf7 also tested in vps9Δ, vps21Δ, vps8Δ, pep12Δ, ypt7Δ and vps39Δ cells (dependent on the Rab5 module, not on Ypt7 or Vps39)
VN-Atg17 (yeast) = target: T1, VN-Atg17 (yeast) (UniProt Q06410)
T1 sequence: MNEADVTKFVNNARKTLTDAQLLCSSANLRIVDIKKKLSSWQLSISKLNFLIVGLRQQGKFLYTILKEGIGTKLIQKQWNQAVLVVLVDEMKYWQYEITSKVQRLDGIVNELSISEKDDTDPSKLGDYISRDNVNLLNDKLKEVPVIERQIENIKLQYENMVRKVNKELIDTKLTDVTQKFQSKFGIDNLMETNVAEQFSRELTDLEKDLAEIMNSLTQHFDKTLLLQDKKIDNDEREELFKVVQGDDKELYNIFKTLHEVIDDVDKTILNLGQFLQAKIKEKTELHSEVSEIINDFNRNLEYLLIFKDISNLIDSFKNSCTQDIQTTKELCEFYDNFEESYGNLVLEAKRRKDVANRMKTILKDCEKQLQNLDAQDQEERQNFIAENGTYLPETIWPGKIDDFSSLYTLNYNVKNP

VN-Atg11 (yeast) = target: T2, VN-Atg11 (yeast) (UniProt Q12527)
T2 sequence: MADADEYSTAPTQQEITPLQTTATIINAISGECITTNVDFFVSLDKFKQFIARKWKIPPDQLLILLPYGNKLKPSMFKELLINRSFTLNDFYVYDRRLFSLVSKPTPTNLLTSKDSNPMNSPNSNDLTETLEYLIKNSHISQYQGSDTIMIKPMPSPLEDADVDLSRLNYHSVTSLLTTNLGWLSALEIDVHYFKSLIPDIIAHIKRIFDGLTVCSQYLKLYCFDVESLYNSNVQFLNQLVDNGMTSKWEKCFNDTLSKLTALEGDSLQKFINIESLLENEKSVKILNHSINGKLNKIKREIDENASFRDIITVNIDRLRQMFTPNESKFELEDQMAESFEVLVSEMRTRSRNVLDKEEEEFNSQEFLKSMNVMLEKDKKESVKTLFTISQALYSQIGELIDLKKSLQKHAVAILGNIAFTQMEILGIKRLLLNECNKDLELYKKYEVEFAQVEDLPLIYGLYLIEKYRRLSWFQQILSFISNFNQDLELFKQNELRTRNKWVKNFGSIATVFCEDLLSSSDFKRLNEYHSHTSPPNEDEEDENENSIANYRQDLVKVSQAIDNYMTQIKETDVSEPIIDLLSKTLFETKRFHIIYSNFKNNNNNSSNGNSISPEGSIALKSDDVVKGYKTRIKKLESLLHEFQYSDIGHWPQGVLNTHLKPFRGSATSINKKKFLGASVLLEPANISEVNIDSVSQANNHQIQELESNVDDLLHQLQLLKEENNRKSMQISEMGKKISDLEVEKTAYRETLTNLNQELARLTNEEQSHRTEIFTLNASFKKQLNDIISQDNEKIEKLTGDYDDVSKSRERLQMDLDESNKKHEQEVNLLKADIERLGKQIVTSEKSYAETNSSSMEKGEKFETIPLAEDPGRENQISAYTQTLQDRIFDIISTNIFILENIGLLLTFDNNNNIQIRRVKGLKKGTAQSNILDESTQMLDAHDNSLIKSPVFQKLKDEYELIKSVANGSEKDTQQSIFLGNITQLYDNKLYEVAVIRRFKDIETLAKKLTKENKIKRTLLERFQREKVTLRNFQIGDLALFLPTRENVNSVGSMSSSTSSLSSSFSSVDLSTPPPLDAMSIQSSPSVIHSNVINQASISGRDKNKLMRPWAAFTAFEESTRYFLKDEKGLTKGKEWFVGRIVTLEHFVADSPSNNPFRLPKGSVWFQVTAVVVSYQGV

VN-Atg13 (yeast) = target: T3, VN-Atg13 (yeast) (UniProt Q06628)
T3 sequence: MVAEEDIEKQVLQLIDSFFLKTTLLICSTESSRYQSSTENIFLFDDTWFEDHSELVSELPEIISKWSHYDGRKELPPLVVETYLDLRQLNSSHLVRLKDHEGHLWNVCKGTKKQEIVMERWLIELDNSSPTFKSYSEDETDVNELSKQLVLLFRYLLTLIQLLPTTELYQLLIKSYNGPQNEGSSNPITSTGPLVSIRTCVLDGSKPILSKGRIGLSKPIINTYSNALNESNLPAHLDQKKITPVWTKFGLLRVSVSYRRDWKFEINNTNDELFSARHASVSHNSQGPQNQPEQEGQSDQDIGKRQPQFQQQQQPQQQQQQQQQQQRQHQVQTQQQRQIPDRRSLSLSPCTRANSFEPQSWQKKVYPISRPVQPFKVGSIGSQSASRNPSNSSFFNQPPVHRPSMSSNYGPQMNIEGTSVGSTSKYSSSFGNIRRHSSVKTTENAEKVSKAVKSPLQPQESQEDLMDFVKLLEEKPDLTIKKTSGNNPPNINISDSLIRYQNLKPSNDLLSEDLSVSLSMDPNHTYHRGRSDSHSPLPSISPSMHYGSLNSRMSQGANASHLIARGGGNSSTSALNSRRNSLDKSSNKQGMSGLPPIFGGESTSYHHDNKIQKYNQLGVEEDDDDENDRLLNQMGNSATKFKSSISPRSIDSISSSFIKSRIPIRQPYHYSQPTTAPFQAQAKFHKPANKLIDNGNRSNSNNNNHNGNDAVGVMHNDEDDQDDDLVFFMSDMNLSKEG

binding (VN-Atg17 (yeast)): binds | binding (VN-Atg11 (yeast)): binds | binding (VN-Atg13 (yeast)): no binding
B1: VC-Snf7 (protein, UniProt P39929 1-240)
chain: MWSSLFGWTSSNAKNKESPTKAIVRLREHINLLSKKQSHLRTQITNQENEARIFLTKGNKVMAKNALKKKKTIEQLLSKVEGTMESMEQQLFSIESANLNLETMRAMQEGAKAMKTIHSGLDIDKVDETMDEIREQVELGDEISDAISRPLITGANEVDEDELDEELDMLAQENANQETSKIVNNNVNAAPISENKVSLPSVPSNKIKQSENSVKDGEEEEDEEDEDEKALRELQAEMGL
